Measured values from PubChem BioAssay AID504832 (National Center for Advancing Translational Sciences (NCATS), 2011).
Among all 310,000 compounds or so, about 18,000 (5.8%) were called active. The inconclusive results got no clear call from the source; some entries with a clear call stand among them for comparison. The call rests on the fitted dose curve; in most records, active means well fitted inhibition curve with a large enough effect; inconclusive means small, poorly fitted or top-dose-only effect, or another doubt; inactive means no such curve, though single readings can be large or run the other way. No potency is given beside an inconclusive call; the fits are too rough.
Potency means the concentration at half of the fitted maximal effect; tags describe the fitted curve by direction and shape.

Experiment: Primary qHTS for delayed death inhibitors of the malarial parasite plastid, 48 hour incubation
Settings: P. falciparum luciferase growth in erythrocytes; series mostly up to 28.7 µM
In short: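 Here the parasites carry a stable luciferase gene and grow inside erythrocytes in Albumax-based RPMI medium with compound for one erythrocytic cycle. Activity is scored as loss of luminescent signal.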
In the case of O=C(CNCc1ccc(F)cc1)Nc1ccccc1[N+](=O)[O-], the Potency was “inactive”.
With COc1cccc(C2=NOC(C(=O)NC3CCCCC3)C2)c1 (configuration not stated) the Potency was “inactive”.
In the case of Nc1c(C(=O)N/N=C/c2ccccc2Cl)oc2nc(-c3ccccc3)cc(-c3ccco3)c12, the Potency was inconclusive [inhibitor, partial curve].
In the case of COc1ccc(-n2nc(C(=O)NCC(=O)N3CCC(C(N)=O)CC3)c3ccccc3c2=O)cc1, the Potency was “inactive”.
For COCCCn1c(SCC(=O)Nc2nc3ccccc3s2)nnc1-c1ccoc1C, the Potency was inconclusive [inhibitor, single point].
For CC(C)C(=O)N1CCC2(CC1)Oc1ccc(Cl)cc1C(=O)C21CC(c2cccnc2)=NO1 (configuration not stated), the Potency was inconclusive [inhibitor, single point].
In the case of N#Cc1ccccc1CSc1nc2ccc(NC(=O)c3ccccc3C(=O)O)cc2s1, the Potency was “inactive”.
For COc1cc([C@@H]2C[C@H]3CN(c4ccccc4)C(=O)[C@]34CCCN24)cc(OC)c1OC, the Potency was inconclusive [inhibitor, partial curve].
With Cc1ccc(-c2ccc(=O)n(Cc3ccc(F)cc3Cl)n2)cc1 the Potency was inconclusive [inhibitor, single point].
For CCC/C(=N\NC(=O)C1CC1)c1ccc(Br)cc1, the Potency was inconclusive [inhibitor, full curve, poor fit].
In the case of O=P(NC(c1ccccc1)c1ccccc1)(Oc1ccccc1)Oc1ccccc1, the Potency was inconclusive [inhibitor, partial curve].
For CC/C=C/C(=O)N1CC2(CC(c3cccc(NC(=O)COc4ccc(Cl)cc4)c3)=NO2)C[C@H]1C(N)=O (some centres not stated), the Potency was active: 10.4 µM.
For O=C(CCCCCN1C(=O)c2cccc3cccc(c23)C1=O)N1CCOCC1, the Potency was inconclusive [inhibitor, partial curve, poor fit].
For Cc1nn(CCC(=O)NCc2ccc(OC(C)C)cc2)c(=O)c2nn(-c3ccccc3)c(C)c12, the Potency was inconclusive [inhibitor, partial curve, poor fit].
With Cc1ccc(SC(C)C(=O)Nc2ccc(S(=O)(=O)N3CCOCC3)cc2)cc1 (configuration not stated) the Potency was inconclusive [inhibitor, single point].
For CCOC(=O)C(CC(=O)Nc1nc(C(C)=O)c(C)s1)C(C)c1ccccc1 (configuration not stated), the Potency was inconclusive [inhibitor, single point].
For COc1ccc(CC(=O)Nc2c(C(=O)N3CCN(c4ccccc4OC)CC3)oc3ccccc23)cc1OC, the Potency was inconclusive [inhibitor, partial curve].
For CCc1nc2ccccc2n1CCC(=O)O, the Potency was “inactive”.
With CCc1ccc(NC(=O)N[C@H](C(=O)O)C(C)CC)cc1 (some centres not stated) the Potency was “inactive”.
With CC(=O)NC12CC3CC(C1)CC(C(=O)N1CCN(S(=O)(=O)c4cccs4)CC1)(C3)C2 the Potency was inconclusive [inhibitor, single point].
For COC(=O)CN(n1cnnc1)S(=O)(=O)c1ccccc1Cl, the Potency was inconclusive [inhibitor, single point].
With CC(C)CC(NC(N)=O)C(=O)OCC(=O)Nc1ccc(OC(F)F)cc1 (configuration not stated) the Potency was “inactive”.
In the case of CCn1ccnc1[C@@H]1C[C@H]2CN(Cc3ccccc3OC)C(=O)[C@]23CCCN13, the Potency was “inactive”.
In the case of COc1ccc(C2SCCN2C(=S)Nc2cccc(Cl)c2)cc1 (configuration not stated), the Potency was active: 2.33 µM.
For C[C@@H]1C[C@@H]2O[C@H]2/C=C\C=C\C(=O)Cc2c(Cl)c(O)cc(O)c2C(=O)O1, the Potency was inconclusive [inhibitor, single point].
For COc1ccc(S(=O)(=O)N2CCCN(CC(=O)Nc3ccc(OC)c(Cl)c3)CC2)cc1, the Potency was inconclusive [inhibitor, partial curve, poor fit].
With CSc1cccc(NC(=O)CCCn2c(=O)c3cccn3c3cccnc32)c1 the Potency was inconclusive [inhibitor, single point].
For COc1cc(OC)c(OC)cc1CN1CCN(S(=O)(=O)c2ccc(NC(C)=O)cc2)CC1, the Potency was inconclusive [inhibitor, partial curve].
In the case of CCOC(=O)N1CCN(CC(=O)Nc2ccc(C)cc2)CC1, the Potency was “inactive”.
With CN(C)CCCNC(=O)c1ccc(-c2nc(-c3ccc(Cl)cc3)cs2)cc1 the Potency was active: 2.62 µM.
For NC(=O)CSc1nc2ccccc2n1Cc1ccccc1, the Potency was active: 2.94 µM.
With NS(=O)(=O)c1ccc(CCNC(=O)c2cc([N+](=O)[O-])ccc2N2CCCCC2)cc1 the Potency was inconclusive [inhibitor, partial curve, poor fit].
With COc1ccc(N2CCN(C(=O)c3ccc(Cn4c(=S)[nH]c5ccc(N6CCOCC6)cc5c4=O)cc3)CC2)cc1 the Potency was inconclusive [inhibitor, single point].
For Cc1ccc(N2CCOCC2)c2c1C(=O)c1ccccc1C2=O, the Potency was inconclusive [inhibitor, single point].
For Cc1cc(C)cc(C(=O)NC(CC(N)=O)c2ccc(NCCN3CCCC3)c([N+](=O)[O-])c2)c1 (configuration not stated), the Potency was “inactive”.
With COc1ccccc1N1CC(C(=O)Nc2nnc(SCc3ccccn3)s2)CC1=O (configuration not stated) the Potency was inconclusive [inhibitor, partial curve, poor fit].
For Cc1cc(N2CCCC2)nc2ccc(NC(=S)NCCCN3CCC(C)CC3)cc12, the Potency was inconclusive [inhibitor, full curve].
In the case of O=C(CSc1nc2ccccc2n1S(=O)(=O)c1ccccc1)N1CCCC1, the Potency was “inactive”.
In the case of CCS(=O)(=O)N1N=C(c2cccc(NS(C)(=O)=O)c2)CC1c1ccc(C)cc1 (configuration not stated), the Potency was “inactive”.
For CN(C)C(=O)c1ccc(NC(=O)COc2cccc3c2OC(C)(C)C3)cc1, the Potency was inconclusive [inhibitor, single point].
With O=C(CSCCS(=O)(=O)c1ccc(Cl)cc1)Nc1ccccc1 the Potency was inconclusive [inhibitor, partial curve, poor fit].
In the case of COc1cccc(CN2CC(C(=O)N3CCCCCCC3)CCC2=O)c1 (configuration not stated), the Potency was inconclusive [inhibitor, full curve, poor fit].
